Laboratory results reported in PubChem BioAssay AID360 (National Center for Advancing Translational Sciences (NCATS), 2006).
The campaign covered roughly 48,000 compounds. About 550 (1.1%) were called active. Roughly 4% stayed inconclusive and do not appear here. Rule as the data show it: active = potency below about 15 µM; inconclusive = mostly about 16 µM to 33 µM; inactive = weaker than that. Some of the results follow.

target: Lysosomal acid glucosylceramidase (Homo sapiens) (UniProt P04062); test: Glucocerebrosidase; conditions: purified enzyme, resorufin glucoside fluorescence (screen aimed at inhibitors), 20 min;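 also: the screen sought inhibitors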
Chain of UniProt P04062 (P04062 whole entry, looked up): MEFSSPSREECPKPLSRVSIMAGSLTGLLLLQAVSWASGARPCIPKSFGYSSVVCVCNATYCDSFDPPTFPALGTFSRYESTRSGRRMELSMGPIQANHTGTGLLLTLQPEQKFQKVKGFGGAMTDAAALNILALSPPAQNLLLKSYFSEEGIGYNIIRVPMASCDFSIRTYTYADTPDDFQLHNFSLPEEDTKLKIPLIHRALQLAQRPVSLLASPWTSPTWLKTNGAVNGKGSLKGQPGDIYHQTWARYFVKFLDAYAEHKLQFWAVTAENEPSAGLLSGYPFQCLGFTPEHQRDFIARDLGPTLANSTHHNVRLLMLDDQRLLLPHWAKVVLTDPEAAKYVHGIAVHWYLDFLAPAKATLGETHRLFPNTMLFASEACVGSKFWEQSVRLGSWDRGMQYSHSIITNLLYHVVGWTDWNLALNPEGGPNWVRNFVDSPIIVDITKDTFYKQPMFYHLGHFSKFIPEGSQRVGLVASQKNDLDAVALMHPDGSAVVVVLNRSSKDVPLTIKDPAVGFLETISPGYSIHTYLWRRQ
Outline: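 Wild-type enzyme at 0.2 nM final in 50mM citric acid/KH2PO4, 10mM sodium taurocholate, 0.01% tween-20, pH 5.9, with resorufin beta-D-glucopyranoside at 30 uM final. Compounds titrated, 20 min at RT, red fluorescence read; AC50 from titration.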
Potency is read from the fitted curve at half-maximal effect.

Potency, inactive:
COc1ccc(-c2nnc(SCc3cc(C)cc(C)c3)o2)cc1 > 76.9 µM
CCOc1ccccc1-n1c(SCC(=O)N2CCOCC2)nnc1-c1ccccn1 > 76.9 µM
COc1cccc(NC(=O)Cc2cccs2)c1 > 76.9 µM
CCN1C(=O)c2cccc3c(S(=O)(=O)Nc4ccc(OC)cc4OC)ccc1c23 > 76.9 µM
CN(Cc1nc2ccccc2c(=O)[nH]1)CC(O)COCc1ccco1 (stereo not drawn) > 76.9 µM
Cc1ccc(N(CC(=O)Nc2ccc(F)cc2)S(=O)(=O)N2CCCC2)cc1 > 76.9 µM
O=C(COC(=O)c1cc(S(=O)(=O)N2CCOCC2)ccc1Cl)Nc1ccc2c(c1)OCO2 > 76.9 µM
O=C(CNS(=O)(=O)c1ccc(Br)s1)N1CCCC1 > 76.9 µM
CC1(C)C(=O)Nc2ccccc2N1C(=O)CN1C(=O)c2ccccc2C1=O > 76.9 µM
CCn1c(=O)cc(NC2=NCC(C)CN2c2cccc(Cl)c2)n(C)c1=O (stereo not drawn) > 76.9 µM
Cc1cc(C)n(-c2ccc(OCC(=O)O)nn2)n1 > 76.9 µM
Cc1ccc2nc(C3CCN(CC(=O)N4CCCCCC4)CC3)[nH]c2c1 > 76.9 µM
COc1cc2c(cc1OC)C(C(=O)Nc1ccc3c(c1)OCCO3)C1c3ccccc3CCN1C2=O (stereo not drawn) > 76.9 µM
CC(C)[C@H](NC(=O)C1(c2ccccc2)CCN(C(=O)OC(C)(C)C)CC1)C(=O)O > 76.9 µM
O=C1CCCC/C1=C\Nc1ccccc1C(=O)O > 76.9 µM
CC1CN(c2nc3ccccc3nc2C(C#N)C(=O)NC2CCCCC2)CC(C)O1 (stereo not drawn) > 76.9 µM
N#CCCn1c2ccccc2c2nc3ccccc3nc21 > 76.9 µM
CCOC(=O)c1ccc(NC(=O)Cn2nnc(-c3ccc(F)cc3)n2)cc1 > 76.9 µM
CCOC(=O)c1cc2nc(Nc3ccc(OC)cc3)sc2s1 > 76.9 µM
CSc1cccc(NC(=O)CSc2ccccc2)c1 > 76.9 µM
COc1ccccc1-c1c(NC(=O)c2ccco2)n(-c2ccccc2)nc(C)c1=O > 76.9 µM
N#C/C(Cn1c[n+](NC(=O)Nc2ccccc2)cn1)=N/O > 76.9 µM
Cc1nc2cc(C(F)(F)F)ccc2n1C1CCN(C(=O)N2CCOCC2)CC1 > 76.9 µM
CCCCNC(=O)CSc1nc2ccccc2c(=O)n1C1CCCC1 > 76.9 µM
COc1cc2nc(N3CCNCC3)nc(N)c2cc1OC > 76.9 µM
CC(C)Sc1nc2c(c(=O)[nH]c(=O)n2C)n1C > 76.9 µM
CCOc1cc2c(cc1OCC)C(c1cc(OC)c(O)c(OC)c1)NCC2 (stereo not drawn) > 76.9 µM
Cc1cccc(NC(=O)C2CC(O)CN2C(=O)OCc2ccccc2)c1 (stereo not drawn) > 76.9 µM
Cc1csc(NC(=O)CSc2nncn2C)n1 > 76.9 µM
CCN1CCN(C(c2cccs2)C(C)NC(=O)c2cccnc2)CC1 (stereo not drawn) > 76.9 µM
O=C(Cn1ccc2ccccc2c1=O)NCCC(=O)N1CCN(c2cccc(C(F)(F)F)c2)CC1 > 76.9 µM
O=C(Nc1c(C(=O)Nc2cccc(F)c2)oc2ccccc12)c1ccc2c(c1)OCO2 > 76.9 µM
COc1ccc(NC(C)=O)cc1NC(=O)CSc1nnc(-c2cccnc2)n1C > 76.9 µM
CCC(=O)c1ccccc1OCCCN1C(=O)NC(C)(C)C1=O > 76.9 µM
Cc1cc(C)c(C(=O)OCCNC(=O)c2cccnc2)cc1C > 76.9 µM
Nc1nonc1-c1noc(CCCCCN2C(=O)c3ccccc3C2=O)n1 > 76.9 µM
CCc1nc2c(n1O)CCc1nonc1-2 > 76.9 µM
O=C(COc1ccccc1)Nc1nc(-c2ccc(S(=O)(=O)N3CCOCC3)cc2)cs1 > 76.9 µM
Cc1cc2n(n1)C(c1ccc(N(C)C)cc1)Nc1ccccc1-2 (stereo not drawn) > 76.9 µM
Cn1nc(C(=O)NCC2CCCO2)c2ccccc2c1=O (stereo not drawn) > 76.9 µM
CCN(CC)CCCN1C(=O)C(O)=C(C(=O)c2sc(C)nc2C)C1c1ccc(C)o1 (stereo not drawn) > 76.9 µM
Cc1ccc(OCC(O)Cn2c(N3CCOCC3)nc3c2c(=O)[nH]c(=O)n3C)cc1 (stereo not drawn) > 76.9 µM
Oc1[nH]c2ccccc2c1OCc1ccncc1 > 76.9 µM
CCCn1c(=N)n(CC(O)c2ccco2)c2ccccc21 (stereo not drawn) > 76.9 µM
O=C1CC(NCc2ccccc2F)C(=O)N1c1ccccc1 (stereo not drawn) > 76.9 µM
COCCNc1oc(COc2cccc(C)c2)nc1C#N > 76.9 µM
COc1nc(/C(N)=N/O)nc(N2CCCCC2)n1 > 76.9 µM
Cc1occc1C(=O)N1CCN(c2ccc(Cl)c(Cl)c2)CC1 > 76.9 µM
COC(=O)c1ccccc1NC(=O)Cn1cnc2c1c(=O)n(C)c(=O)n2C > 76.9 µM
CCCn1c(C(C)NC(=O)c2ccccc2)nc2ccccc21 (stereo not drawn) > 76.9 µM
COc1ccccc1NC(=O)N1CCCC1C(=O)NC12CC3CC(CC(C3)C1)C2 (stereo not drawn) > 76.9 µM
COc1ccc(NC(=O)CSc2nnc(-c3ccccc3C)n2C)cc1 > 76.9 µM
O=c1c2[nH]c3ccccc3c2ncn1CCN1CCCCC1 > 76.9 µM
Cc1ccc(C(=O)NCC2CCCO2)o1 (stereo not drawn) > 76.9 µM
O=C(Cc1cccs1)N1CCCC(c2nc(-c3ccc(S(=O)(=O)N4CCCC4)cc3)no2)C1 (stereo not drawn) > 76.9 µM
COc1ccc(CC(=O)Nc2nc3n(n2)C(c2ccccc2)CC(=O)N3)cc1OC (stereo not drawn) > 76.9 µM
CC1CC(=O)C=C(O)C1C(=O)OC(C)(C)C (stereo not drawn) > 76.9 µM
CS(=O)(=O)N(CCc1ccccc1)CC(=O)NCc1ccc2c(c1)OCO2 > 76.9 µM
